SMILES strings stand for the structures. The campaign covered roughly 43,000 compounds. About 200 (0.47%) were called active. About 12% were inconclusive and are not listed. Calls follow the shape of the dose curve; as a rule, active = well fitted cell-killing curve with a large enough effect; inconclusive = small, poorly fitted or top-dose-only effect, or effect the other way; inactive = flat fitted curve, though single readings scatter. Some of the results follow.
% is scaled to controls: 0 for no effect and ±100 for the full control effect.

A short description of this test: Cell viability qHTS assay in S16 Pmp22-F2sN cells. Also: nearly all actives have a fitted effect of over 65% in size. The note with it: S16 Pmp22-F2sN Schwann cells (luciferase reporters placed in the Pmp22 gene) viability, CellTiter-Glo, 24 h; series mostly up to 57.5 µM; activity change, negative = cytotoxicity: at the top concentration. The procedure, abridged:
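Seed 500-1,000 S16 Pmp22-F2sN cells per well in phenol-red-free DMEM with 10% heat-inactivated FBS; pin-add 23 nL compound; incubate 24 h at 37C; add CellTiter-Glo, wait 15 min protected from light; read luminescence.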
For orientation: Quantitative high-throughput screening tests each substance at several concentrations.
On to `O=C(CNS(=O)(=O)c1ccc(Br)s1)N1CCN(c2ccc(F)cc2)CC1`, for which the “activity change, negative = cytotoxicity” value is inactive: -0.403%.
Turning to `COCCNS(=O)(=O)c1cc(-c2nn3c(C)nnc3c3ccccc23)ccc1C`, the “activity change, negative = cytotoxicity” value was inactive: 1.72%.
Then `Cc1ccc(NC(=O)N2CCN(C(=O)c3nsc4ccccc34)CC2)cc1C`, with inactive: 0.044%.
On to `CC(C)(C)c1ccc(C(=O)NC2=NC(c3cccc(F)c3)CC(=O)N2)cc1` (stereo unspecified), for which the “activity change, negative = cytotoxicity” value is inactive: 15.2%.
Consider `Cc1cc(C)c2oc(C(=O)NCCc3ccc(S(N)(=O)=O)cc3)cc(=O)c2c1`, for which the “activity change, negative = cytotoxicity” value was inactive: 9.01%.
With `COc1ccc(Cl)cc1NC(=O)C(=O)NCc1ccc(Cl)cc1`, the “activity change, negative = cytotoxicity” value is inactive: -9.24%.
As for `COc1ccc2c(c1)c1c(c(=O)n(Cc3ccccc3)c(=O)n1CC(=O)Nc1ccccc1F)n2C`, the figure is inactive: 3.95%.
For `CCOC(=O)c1cnc(NCc2ccc(OC)cc2OC)c2ccccc12`, the “activity change, negative = cytotoxicity” value is inactive: 0.265%.
`CCOc1ccccc1NC(=O)N1CC(C)Oc2ccc(Cl)cc21` (stereo unspecified): the “activity change, negative = cytotoxicity” value is inactive: -10.7%.
As for `Cc1ccc(OC(=O)CSc2nnc(-c3ccc4c(c3)OCO4)o2)c(C)c1`, the “activity change, negative = cytotoxicity” value is inactive: 9.34%.
With `Cc1cccn2c(=O)cc(COc3ccc(NC(=O)COc4ccc(F)cc4)cc3)nc12`, the “activity change, negative = cytotoxicity” value was inactive: 5.76%.
Regarding `COc1cccc(NC(=O)CN2C=NS(=O)(=O)c3ccccc32)c1`, the “activity change, negative = cytotoxicity” value is inactive: 2.68%.
As for `Cc1ccc(C(=O)c2sc(Nc3ccc(F)cc3)c(C#N)c2N)cc1`, the figure is inactive: -7.96%; as for `COc1cccc(-c2nc3c(c(SCC(=O)Nc4cccc(C)c4C)n2)Cc2c(CO)cnc(C)c2O3)c1`, inactive: 4.08%.
Then `Cc1cccc(CCn2c(=O)c3ccccc3n(Cc3ccccc3C)c2=O)c1`, with inactive: 7.61%.
Then `CCCCNC(=O)c1ccc2c(c1)NC(=O)C(C(C)C)N2` (stereo unspecified), with inactive: 16.1%.
As to `COc1ccc2c(c1)c1c(c(=O)n(-c3ccc(F)c(Cl)c3)c(=O)n1Cc1ccccc1F)n2C`, the “activity change, negative = cytotoxicity” value was inactive: -21.3%.
As for `CCOC(=O)C1=C(CN(CC)Cc2ccccc2)NC(=O)NC1c1ccc(OC)cc1` (stereo unspecified), the figure is inactive: 7.94%.
As for `N#Cc1c(-n2ncnc2-c2cccc(Cl)c2)sc2c1CCCCC2`, the figure is inactive: 4.05%; as for `CCOc1cccc(-c2nc3ccccc3c(=O)o2)c1`, inactive: -21.8%.
Consider `COc1ccccc1NC(=O)C(=O)c1cc(C)n(-c2cc(C)cc(C)c2)c1C`, for which the “activity change, negative = cytotoxicity” value was inactive: 1.43%.
In the case of `Nc1nc(N)c(S(=O)(=O)c2ccccc2)c(Nc2ccccc2)n1`, the “activity change, negative = cytotoxicity” value is inactive: -1.97%.
Turning to `COc1cccc(C2C(=O)N(C3CCCCC3)CC(=O)N2CCc2ccc(OC)c(OC)c2)c1` (stereo unspecified), the “activity change, negative = cytotoxicity” value is inactive: 9.54%.
For the compound `CCc1ccc(-n2c(=O)c3sc4ccccc4c3n(CC(=O)NC3CCCC3)c2=O)cc1`, the “activity change, negative = cytotoxicity” value was inactive: 6.49%.
As for `COc1cc(OC)c(NC(=O)CCc2nc(C3=CCN(Cc4cccc(Cl)c4)CC3)no2)cc1Cl`, the figure is inactive: 21.2%; as for `Cc1nc2nc(CNC(=O)OC(C)(C)C)nn2c(C)c1CCC(=O)NCc1ccccc1Cl`, inactive: -7.14%.
Then `Cc1ccc(NC(=O)c2oc3ccccc3c2NC(=O)C2CCCCC2)cc1`, with inactive: -0.959%; and `CCc1ccc2c(c1)c(=O)c(S(=O)(=O)c1ccc(F)cc1)cn2CC(=O)Nc1ccccc1OC`, with inactive: 1.61%; and `CCOC(=O)C1CCN(C(=O)c2ccc(C)c(NC(=O)c3nsc4ccccc34)c2)CC1`, with inactive: 4.22%.
`CCC(=O)N1c2ccc(S(=O)(=O)CCC(=O)NCc3ccc(OC)cc3)cc2CC1C` (stereo unspecified): the “activity change, negative = cytotoxicity” value was inactive: 6.58%.
Then `Cc1ccc(NC(=O)C2CCC(CNS(=O)(=O)c3cccs3)CC2)cc1C` (stereo unspecified), with inactive: 7.84%; and `COc1ccc(NC(=O)COCc2cc(-c3ccco3)on2)cc1Cl`, with inactive: 0.239%; and `O=C(Nc1ccc(F)c(F)c1)c1ccc(=O)n(Cc2ccc(F)cc2)c1`, with inactive: -13.2%.
`CC1=C(C(=O)Nc2cc(C)cc(C)c2)C2(CCCCC2)OC1=O`: the “activity change, negative = cytotoxicity” value was inactive: 8.58%.
Then `CC(C)c1ccc(S(=O)(=O)NCc2nc3cccnc3n2Cc2ccc(F)cc2)cc1`, with inactive: 0.315%; and `CCc1cccc(C)c1Nc1c(-c2cccs2)nc2ncccn12`, with inactive: -0.336%.
Turning to `O=S(=O)(Nc1ccc(OC(F)(F)F)cc1)c1ccc(N2CCCCS2(=O)=O)cc1`, the “activity change, negative = cytotoxicity” value is inactive: -11.8%.
As for `O=C(Cn1c(=O)c2ccccc2n(CC(=O)Nc2ccccc2F)c1=O)NCCc1ccccc1`, the figure is inactive: 0.0785%; as for `COC(=O)c1ccc(NC(=O)c2c(-c3ccccc3)c(-c3ccccc3)nn(C)c2=O)cc1`, inactive: 17%.
As for `CCOC(=O)Cc1ccc(NC(=O)Nc2nnc(N3CCCCC3C)s2)cc1` (stereo unspecified), the figure is inactive: -2.51%; as for `CCc1ccc(Nc2nc(-c3cc4cccc(OC)c4oc3=O)c(CC)s2)cc1`, inactive: -25.4%; as for `CCCN(C(=O)c1cc2c(s1)-c1ccccc1OC2)c1ccc(C(C)C)cc1`, inactive: 21.1%.
Then `Cc1cccc(OC(=O)c2snnc2C)c1C`, with inactive: -1.24%; and `CCC(=O)N1CCc2cc(Br)cc(S(=O)(=O)NCCc3ccc(C)cc3)c21`, with inactive: 1.8%; and `CCOc1ccc(-c2cc3nc(C4CCN(C(=O)OC(C)(C)C)CC4)c(C(=O)Nc4cccc(C(F)(F)F)c4)cn3n2)cc1`, with inactive: 3.39%.
Turning to `COc1ccc(Br)cc1CNCc1c(C(=O)O)c(C)n(Cc2ccccc2C)c1C`, the “activity change, negative = cytotoxicity” value is inactive: -5.23%.
For `COc1ccc(-c2nc3scc(CCNS(=O)(=O)c4cccs4)n3n2)cc1`, the “activity change, negative = cytotoxicity” value was inactive: -29%.
Then `COc1cc(Cl)c(NS(=O)(=O)c2cc3[nH]c(=O)c(=O)[nH]c3cc2C)c(OC)c1`, with inactive: 11.3%; and `Cc1ccc(-n2c(=O)c3c4c(sc3n(CC(=O)C(C)(C)C)c2=O)CCCCC4)cc1C`, with inactive: 7.78%; and `Cc1cc2c(cc1S(=O)(=O)CCC(=O)N1CCN(c3ccccc3)CC1)OCC(=O)N2`, with inactive: 5.78%.
Take `CCCCCOC(=O)CSc1nc2sc3c(c2c(=O)n1Cc1ccccc1)CC(C)(CC)OC3` (stereo unspecified): the “activity change, negative = cytotoxicity” value was inactive: 10.4%.
Then `Cc1c(Cl)cccc1-n1ncc(C(=O)NC2CCCC2)c1C1CCN(C(=O)OC(C)(C)C)CC1`, with inactive: 4.68%; and `Cc1ccc(NC(=O)N2CCN3CCCCC3C2)cc1C` (stereo unspecified), with inactive: 23%.
As for `CCOc1ccc(NC(=O)c2nn(C)c3c2COc2ccccc2-3)cc1`, the figure is inactive: 3.31%.
`COc1ccc2c(c1)c1c(c(=O)n(-c3cc(Cl)ccc3C)c(=O)n1Cc1ccc(F)cc1)n2C`: the “activity change, negative = cytotoxicity” value is inactive: 11.7%.
As for `COc1ccc(-c2[nH]c(-c3ccc(C)cc3)nc2SCC(=O)NCC2CCCO2)cc1` (stereo unspecified), the figure is inactive: -1.44%.
With `COc1cccc(NC(=O)CSc2nc(=O)[nH]c3c2CCCC3)c1`, the “activity change, negative = cytotoxicity” value is inactive: 13.5%.
Then `CCSc1ncc(Cl)c(C(=O)Nc2cc(C)ccc2C)n1`, with inactive: 15.2%; and `CC(=O)c1c(C)n(-c2cccc(Cl)c2)c2ccc(OC(=O)c3ccccc3)cc12`, with inactive: 3.69%; and `CCCOC(=O)c1c(-c2ccccc2)c(-c2ccccc2)nn(C)c1=O`, with inactive: 9.11%.
As for `Cc1cc(C)c(-c2n[nH]c3c2C(c2ccccc2F)N(CCO)C3=O)c(O)c1` (stereo unspecified), the figure is inactive: 1.7%.
Then `COC(=O)c1c(NC(=O)CS(=O)(=O)c2ccc(C)cc2)sc2c1CCCCC2`, with inactive: -0.341%; and `CCOc1cc2[nH]c(=O)n(CCC(=O)N3CCN(c4ccccc4)CC3)c(=O)c2cc1OCC`, with inactive: 1.27%.
Consider `O=C(c1ccc(Cl)cc1)n1nc(-c2ccccc2)nc1NCc1ccco1`, for which the “activity change, negative = cytotoxicity” value was inactive: -3.75%.
Then `Cc1ccc2scc(N3CCCC(C)C3)c(=O)c2c1` (stereo unspecified), with inactive: 18%; and `Cn1c(=O)n(C)c2cc(CNCc3ccccc3Cl)ccc21`, with inactive: 3.63%; and `CCc1cccc(NC(=O)CN2C(=O)COc3ccc(S(=O)(=O)N4CCC(C)CC4)cc32)c1`, with inactive: 1.96%.
As for `CC(=O)Nc1ccc(S(=O)(=O)NC2(C(F)(F)F)C(=O)Nc3c2c(=O)[nH]c(=O)n3-c2ccc(C)cc2)cc1` (stereo unspecified), the figure is inactive: -2.76%; as for `CCOCCCNC(=O)C(c1ccc(OC)cc1)N(Cc1cccs1)C(=O)CNC(C)=O` (stereo unspecified), inactive: -8.25%; as for `Cc1ccc(C(=O)CC2(O)C(=O)N(CCc3ccccc3)c3ccc(Br)cc32)cc1` (stereo unspecified), inactive: 5.75%.
Then `Cc1ccc(Cn2c(C)c3cnn(CC(=O)N4CCN(c5cc(C)ccc5C)CC4)c(=O)c3c2C)cc1`, with inactive: -16.5%.
As to `COc1cccc(-n2c(C)nc3c(cnn3-c3ccc(C)c(C)c3)c2=O)c1`, the “activity change, negative = cytotoxicity” value was inactive: -0.728%.
On to `O=c1oc2ccc(Cl)cc2cc1-c1nc(-c2cccs2)no1`, for which the “activity change, negative = cytotoxicity” value was inactive: -0.497%.
Then `CCOC(=O)c1cc2c(=O)n3ccccc3nc2n(CCCOC)c1=NC(=O)c1cc2ccccc2o1`, with inactive: 2.75%; and `COc1ccc(NC(=O)Cn2c(=O)n(Cc3ccccc3Cl)c(=O)c3cc(OC)c(OC)cc32)cc1`, with inactive: 1.82%; and `Cc1ccc(N2CCn3c2nc2c3c(=O)n(Cc3cccc(Cl)c3)c(=O)n2C)cc1C`, with inactive: 2.32%.
Consider `CC(C)c1ccc(NC(=O)CN2C(=O)C3(SCC(=O)N3c3ccc(F)cc3)c3ccccc32)cc1` (stereo unspecified), for which the “activity change, negative = cytotoxicity” value is inactive: -26.4%.
Then `O=C(Nc1ccc(Cl)cc1)c1ccc2c(c1)N(Cc1ccccc1)CCS2`, with inactive: -5.33%.
Then `COc1ccc(NC(=O)Cn2c(=O)n(Cc3ccco3)c(=O)c3sc4ccccc4c32)cc1Cl`, with inactive: 21.6%.
With `Cc1nc(CC(=O)Nc2ccc(C(N)=O)cc2)cs1`, the “activity change, negative = cytotoxicity” value was inactive: -2.01%.
Then `CCSC1=NC2(CCN(C(=O)NC3CCCCC3)CC2)N=C1c1ccc(OC)cc1`, with inactive: -17.5%.
Then `CCOc1ccccc1CNC(=O)CCc1cn(C)c2ccccc12`, with inactive: 4.73%; and `CC(C(=O)NCc1ccccc1)n1ccc2cc(S(=O)(=O)N3CCCC3)ccc21` (stereo unspecified), with inactive: 5.81%.
Consider `O=C(CN1C(=O)CCSc2ccc(S(=O)(=O)N3CCCC3)cc21)Nc1ccccc1Cl`, for which the “activity change, negative = cytotoxicity” value is inactive: 0.0251%.
As for `CCN(C(=O)CSc1nc2ccccc2nc1Cc1ccccc1OC)c1ccccc1`, the figure is inactive: 3.12%; as for `CCCC12CN3CC(CCC)(CN(C1)C3c1c[nH]c3ccc(OC)cc13)C2=O` (stereo unspecified), inactive: 3.93%; as for `CCCOc1ccc(CC2C(=O)Nc3ccc(Br)cc32)cc1` (stereo unspecified), inactive: 5.41%.
As for `Cc1ccc(C(=O)COC(=O)C(Cc2c[nH]c3ccccc23)NC(=O)c2ccc(Br)cc2)cc1` (stereo unspecified), the figure is inactive: 2.28%; as for `Cc1nnc(N2CCC(C(=O)NCc3ccc(N(C)C)cc3)CC2)c2nn(-c3ccccc3)c(C)c12`, inactive: -0.292%.
Then `CCc1nn(CC(=O)NCc2cccc(OC)c2OC)c(=O)c2cc3occc3n12`, with inactive: 14.2%; and `COc1ccc(OC)c(CNC(=O)Cn2nc(C)c3c(C)n(-c4ccccc4)nc3c2=O)c1`, with inactive: 3.64%; and `Cc1cc2oc(C(=O)Nc3cccc(-c4nc5ccccc5o4)c3)c(C)c2cc1Cl`, with inactive: 1.05%.
On to `O=C(Nc1ccc(Cl)cc1)c1ccc2c(c1)N(Cc1ccccc1)C(=O)c1ccccc1S2(=O)=O`, for which the “activity change, negative = cytotoxicity” value is inactive: -1.67%.
Consider `CN(CC(=O)Nc1cccc(C#N)c1)S(=O)(=O)c1cc2c(cc1Cl)NC(=O)CO2`, for which the “activity change, negative = cytotoxicity” value was inactive: 2.51%.
For `CCOc1ccccc1CNC(=O)CC(C)n1ccc(C)n1` (stereo unspecified), the “activity change, negative = cytotoxicity” value was inactive: 4.92%.
Then `O=C(CSc1nc2ccccc2n1Cc1cccc(Cl)c1)N1CCN(c2ccc(F)cc2)CC1`, with inactive: 4.52%.

The values are drawn from PubChem BioAssay AID1508642 (National Center for Advancing Translational Sciences (NCATS), 2021).
